Measurements: the supplement of paper PMC4166925
± gives the standard deviation of the averaged measurements. The full ranking holds about 33,000 sequences; the median of “E-score (dimensionless, -0.5 to 0.5)” is about -0.046, and the highest 2% start at about 0.36. The list shows a part of the results.

What follows are sequences tested on T1, SpTbr T-box DNA-binding domain (GST fusion) (assay: PBM E-score of 8-mer (E-score (dimensionless, -0.5 to 0.5)); Tbr is Tbrain of the sea star Patiria miniata (Pm) or the sea urchin Strongylocentrotus purpuratus (Sp); higher = stronger binding preference; most listed sequences are background and not binding sites). Conditions: the construct has about 5 more residues each side.
T1 sequence: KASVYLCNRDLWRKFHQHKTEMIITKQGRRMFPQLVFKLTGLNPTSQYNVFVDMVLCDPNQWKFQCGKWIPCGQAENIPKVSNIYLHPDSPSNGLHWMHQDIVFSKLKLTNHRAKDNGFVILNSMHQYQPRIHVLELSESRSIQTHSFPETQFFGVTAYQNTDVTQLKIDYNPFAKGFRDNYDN
Summary of the method: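 Each ungapped 8-mer received an enrichment E-score from the Universal PBM Analysis Suite, averaged over duplicate arrays. The proteins were Tbr T-box DNA-binding domains, covering the whole T-box plus about five flanking residues, fused to GST and expressed in BL21 E. coli at 20 °C before glutathione affinity purification. Universal Agilent oligonucleotide arrays were made double-stranded by primer extension and incubated with 200 nM protein in PBS (pH 7.5). The arrays were then scanned and quantified, and every 8-mer was scored from probe intensities.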

Sequence | PBM E-score of 8-mer
CCGGAGAG | -0.14 ± 0.037
CTAACTCC | -0.0932 ± 0.053
TTATCGAA | -0.0377 ± 0.05
ATCGTAGA | -0.22 ± 0.058
AACGAAAA | -0.157 ± 0.015
AACGAGAA | -0.0184 ± 0.012
CTTACGTA | -0.191 ± 0.034
TAGTCGGA | -0.226 ± 0.059
ATAAGAAA | -0.0877 ± 0.046
ACTAACCG | -0.11 ± 0.0066
ACCCGAGT | -0.0592 ± 0.085
AACTTTCC | -0.00387 ± 0.014
TACCTACA | -0.24 ± 0.016
AAGTGAAG | 0.13 ± 0.049
AAACGGCT | -0.0874 ± 0.046
ATGGAGTG | 0.0521 ± 0.0097
ACTATCAT | -0.0341 ± 0.069
AGGTTAGA | -0.209 ± 0.025
AGTTCACA | 0.442 ± 0.013
TCAATCAA | -0.134 ± 0.005
CGTGCCTA | -0.0792 ± 0.002
CTCAGGCC | -0.273 ± 0.0029

Sequence | PBM E-score of 8-mer
ATCCCCCC | -0.114 ± 0.019
ACCGCAAC | 0.0768 ± 0.011
CGTATATC | -0.204 ± 0.038
CGCCAGGC | 0.0802 ± 0.039
CTTTTCCA | -0.00443 ± 0.094
AGTACTCG | -0.0747 ± 0.055
ACTCCGCT | -0.0708 ± 0.048
GCGTTATA | 0.116 ± 0.04
GACTCCCA | 0.0282 ± 0.02
TACGTGCA | -0.0274 ± 0.019
CACATCAA | 0.113 ± 0.0036
GGGTCGTA | -0.0786 ± 0.067
GACACGAA | -0.00283 ± 0.0034
AGCTCTAG | -0.216 ± 0.036
GAATCAAC | -0.0673 ± 0.072
CATGGGTC | -0.0751 ± 0.043
CCTTGAAG | -0.174 ± 0.028
ACCCCATA | -0.0252 ± 0.048
AGAAGGAT | -0.0265 ± 0.033
ACAGTCCC | 0.0329 ± 0.055
TAGGGGAA | -0.114 ± 0.035
GCATGCAC | -0.121 ± 0.0081

Sequence | PBM E-score of 8-mer
CCGAATCA | -0.0287 ± 0.0021
GCCATTAA | -0.0677 ± 0.022
TAGCCTCA | -0.188 ± 0.019
CTCAATCC | -0.143 ± 0.0076
GGCGACTA | 0.0382 ± 0.012
ACGCCAGC | 0.225 ± 0.0086
ATTTTACA | 0.0366 ± 0.039
CTCCCCTA | -0.263 ± 0.0042
CGCTTGCA | 0.135 ± 0.0068
CGCCGCAG | -0.133 ± 0.041
ATGGGCCC | -0.202 ± 0.014
CAACGGAC | -0.00834 ± 0.036
CTTCGTGC | -0.0237 ± 0.045
AGGGCGTC | 0.0922 ± 0.035
TCCCGACA | 0.0227 ± 0.032
AGACTTCA | -0.0237 ± 0.0098
AATAAGAA | -0.182 ± 0.017
AAAGAATA | -0.0591 ± 0.034
GTCCTCTA | -0.287 ± 0.0061
AATTGGTA | -0.188 ± 0.025
CCATTAGC | 0.0519 ± 0.085
CGATTCAG | -0.0197 ± 0.012

Sequence | PBM E-score of 8-mer
GCTGTCTA | 0.0128 ± 0.0077
AAGAGTCT | -0.231 ± 0.075
CAAGGTCG | -0.015 ± 0.0036
CGAGTTAA | 0.193 ± 0.008
CACTGAAG | -0.105 ± 0.019
CGGGCCTC | -0.179 ± 0.013
AAAACACC | 0.298 ± 0.018
ACGACAAA | 0.0001 ± 0.045
CTTCAGCC | -0.0849 ± 0.077
ACGTAGCG | -0.0113 ± 0.029
TACCACAA | -0.0401 ± 0.041
AGCAGGCA | -0.0298 ± 0.022
AGTCGATC | 0.0092 ± 0.035
TCCTAACA | 0.141 ± 0.059
CGGCGGGC | -0.184 ± 0.12
GGTAGTTA | -0.00108 ± 0.033
ACGCTGGG | -0.00371 ± 0.016
GTGATTCA | 0.0849 ± 0.0068
CGTACGAC | -0.0171 ± 0.029
CAGATCAC | 0.135 ± 0.033
GGAGTCGA | 0.00106 ± 0.037
CGTAATTA | -0.116 ± 0.069

Sequence | PBM E-score of 8-mer
CGATGGAG | -0.131 ± 0.032
AGGCAAGG | -0.16 ± 0.052
CGGCAGGC | -0.0737 ± 0.01
ACATATAC | -0.0534 ± 0.032
ACTGGGAT | 0.0148 ± 0.046
ATGGACGG | -0.175 ± 0.066
CAGTCCGC | 0.0486 ± 0.021
CACCGTGG | 0.2183 ± 0.0016
AGCTAAAG | -0.278 ± 0.036
GGCTGCGA | 0.185 ± 0.027
CATCAAAG | 0.0341 ± 0.022
AAACCTTA | -0.0223 ± 0.025
AAACTATA | 0.0762 ± 0.033
ACTACGTG | 0.0836 ± 0.056
ATGCGAGA | 0.172 ± 0.017
ACGACGCC | 0.121 ± 0.079
CCGCTGCC | -0.0817 ± 0.0059
CAAATACC | -0.0853 ± 0.024
ATCGTGAG | 0.208 ± 0.0056
CGCGTCAA | 0.313 ± 0.006
ATACTAAA | -0.122 ± 0.0058
